# Measured values from the supplement of paper PMC12067230.
# The data scatter; read single values as rough.
# Test: amyloid nucleation score relative to library mode (yeast Sup35 reporter selection) (log enrichment difference); higher = more amyloid nucleation; sequences are the first 22 residues of the Bri2 peptide extended by up to 12 random residues
# Details: random library (experiment): 1;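 active = nucleation score significantly above 0 at FDR 0.05; inactive = not significantly above 0 or absent from output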
# 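Further: [psi-pin-] Saccharomyces cerevisiae expressing SupN fusions, induced by 100 µM Cu2SO4, selected 7 d at 30 °C without adenine and uracil, scored by deep sequencing of output versus input.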
row,Sequence,amyloid nucleation score
1,EASNCFAIRHFENKFAVETLICTVWCPYFYYSER,8.07
2,EASNCFAIRHFENKFAVETLICYLFGRVVYRA,inactive
3,EASNCFAIRHFENKFAVETLICGSVVGERVLVSV,inactive
4,EASNCFAIRHFENKFAVETLICDGTQCSRVLYVR,inactive
5,EASNCFAIRHFENKFAVETLICCWWMAEGVRNRE,7.82
6,EASNCFAIRHFENKFAVETLICTINEVQIGDCLR,8.46
7,EASNCFAIRHFENKFAVETLICVPAPLDGRASRE,inactive
8,EASNCFAIRHFENKFAVETLICPRYGSVALEDKE,-0.0935
9,EASNCFAIRHFENKFAVETLICGASVYNSCDIAS,inactive
10,EASNCFAIRHFENKFAVETLICWGSRGCRSWISA,inactive
11,EASNCFAIRHFENKFAVETLICTLRSCLFASM,inactive
12,EASNCFAIRHFENKFAVETLICCLGCNISSCHPK,8.79
13,EASNCFAIRHFENKFAVETLICPAGGPVRYSHTS,inactive
14,EASNCFAIRHFENKFAVETLICCTDMSKSLLSS,inactive
15,EASNCFAIRHFENKFAVETLICQMLGVWLCATWM,inactive
16,EASNCFAIRHFENKFAVETLICWVAN,0.539
17,EASNCFAIRHFENKFAVETLICWDVRQKRHKLRG,inactive
18,EASNCFAIRHFENKFAVETLICITCVHGLSWLYA,4.74
19,EASNCFAIRHFENKFAVETLICGKGPTRKTCTVH,inactive
20,EASNCFAIRHFENKFAVETLICVICLECDRKSAK,7.81
21,EASNCFAIRHFENKFAVETLICRDRQF,inactive
22,EASNCFAIRHFENKFAVETLICALVLDIRSETIV,3.49
23,EASNCFAIRHFENKFAVETLICTIFPKGDCGVWG,5.2
24,EASNCFAIRHFENKFAVETLICVCKGPRPYSC,3.46
25,EASNCFAIRHFENKFAVETLICMAKCFHLQFELF,inactive
26,EASNCFAIRHFENKFAVETLICTLFLGAVQECWR,inactive

row,Sequence,amyloid nucleation score
1,EASNCFAIRHFENKFAVETLICVAGDKRRMQWPG,inactive
2,EASNCFAIRHFENKFAVETLICFYMATLAATVR,inactive
3,EASNCFAIRHFENKFAVETLICDWRAQRQ,3.22
4,EASNCFAIRHFENKFAVETLICICVCHVIRSVLE,inactive
5,EASNCFAIRHFENKFAVETLICLMLRARGVDKAC,2.98
6,EASNCFAIRHFENKFAVETLICYM,7.7
7,EASNCFAIRHFENKFAVETLICFGVTLVGLWGRM,inactive
8,EASNCFAIRHFENKFAVETLICGELYFGRRCISL,inactive
9,EASNCFAIRHFENKFAVETLICITVTGVS,inactive
10,EASNCFAIRHFENKFAVETLICFQRMLQFSLKYA,-0.029
11,EASNCFAIRHFENKFAVETLICVGDM,inactive
12,EASNCFAIRHFENKFAVETLICAPWVRSDRRGVG,1.41
13,EASNCFAIRHFENKFAVETLICGHGMLRCRLSRR,4.63
14,EASNCFAIRHFENKFAVETLICTRMCKD,3.21
15,EASNCFAIRHFENKFAVETLICAFRGIEGSSCLS,inactive
16,EASNCFAIRHFENKFAVETLICFVRVVTVRHIWF,inactive
17,EASNCFAIRHFENKFAVETLICPSSQSQYGFIRG,inactive
18,EASNCFAIRHFENKFAVETLICGVGHQRVELAMR,0.42
19,EASNCFAIRHFENKFAVETLICRIRSCLSALAVA,inactive
20,EASNCFAIRHFENKFAVETLICPYRMYLKPWVEF,0.693
21,EASNCFAIRHFENKFAVETLICRMSGALRAVFGA,0.00985
22,EASNCFAIRHFENKFAVETLICVKRLAN,inactive
23,EASNCFAIRHFENKFAVETLICCITYDVNVDLGL,6.01
24,EASNCFAIRHFENKFAVETLICLNQAFCEPAGLG,inactive
25,EASNCFAIRHFENKFAVETLICFDEVGLAECWRR,3.66
26,EASNCFAIRHFENKFAVETLICVSMYLNVLGYTS,-0.648

# Same assay, conditions: random library (experiment): 2
row,Sequence,amyloid nucleation score
1,EASNCFAIRHFENKFAVETLICVILD,3.51
2,EASNCFAIRHFENKFAVETLICLVSFSL,4.76
3,EASNCFAIRHFENKFAVETLICDYWMSRMVSTEL,0.929
4,EASNCFAIRHFENKFAVETLICLIFTMISLGNDG,inactive
5,EASNCFAIRHFENKFAVETLICIGLGLKPADAFG,inactive
6,EASNCFAIRHFENKFAVETLICNICMFDCRTVGG,8.79
7,EASNCFAIRHFENKFAVETLICYSIVSNMPEFIV,1.11
8,EASNCFAIRHFENKFAVETLICQTDMSCKIYVWC,inactive
9,EASNCFAIRHFENKFAVETLICTCLNDFFCRFS,inactive
10,EASNCFAIRHFENKFAVETLICGPE,inactive
11,EASNCFAIRHFENKFAVETLICHSNEQNSRRSWL,3.11
12,EASNCFAIRHFENKFAVETLICGLLNLSTSIIAV,2.09
13,EASNCFAIRHFENKFAVETLICVIIERFRCGMCK,inactive
14,EASNCFAIRHFENKFAVETLICCSSW,8.45
15,EASNCFAIRHFENKFAVETLICETCDVTFDSCTR,inactive
16,EASNCFAIRHFENKFAVETLICCLHTLATAKTAW,inactive
17,EASNCFAIRHFENKFAVETLICVFNIFLFQVARL,-0.3
18,EASNCFAIRHFENKFAVETLICFLVKYHYTPGNR,inactive
19,EASNCFAIRHFENKFAVETLICVCSGLGSNEVRE,8.46

row,Sequence,amyloid nucleation score
1,EASNCFAIRHFENKFAVETLICINRSTFFYFLVH,inactive
2,EASNCFAIRHFENKFAVETLICMQHPYTSDIGEV,inactive
3,EASNCFAIRHFENKFAVETLICEFYGLFDLWKSR,2.37
4,EASNCFAIRHFENKFAVETLICRTS,inactive
5,EASNCFAIRHFENKFAVETLICHLWRCGLFVAGF,inactive
6,EASNCFAIRHFENKFAVETLICFRWKCGF,2.92
7,EASNCFAIRHFENKFAVETLICGVWRYHVHVGSR,inactive
8,EASNCFAIRHFENKFAVETLICGVINDQSINGFC,5.51
9,EASNCFAIRHFENKFAVETLICWYCQVRVAIYQW,inactive
10,EASNCFAIRHFENKFAVETLICPSFYWCHSLWLG,inactive
11,EASNCFAIRHFENKFAVETLICLSGYTLFSTNFW,inactive
12,EASNCFAIRHFENKFAVETLICHSGTVVICGLFR,8.3
13,EASNCFAIRHFENKFAVETLICTNYQTQNTKGRW,4.69
14,EASNCFAIRHFENKFAVETLICFTFFGALLERSA,inactive
15,EASNCFAIRHFENKFAVETLICVCIYRNSKRWDM,2.71
16,EASNCFAIRHFENKFAVETLICLIFDSVFVGILR,-0.255
17,EASNCFAIRHFENKFAVETLICTQ,inactive
18,EASNCFAIRHFENKFAVETLICVTVAL,inactive

# Same assay, conditions: random library (experiment): 3
row,Sequence,amyloid nucleation score
1,EASNCFAIRHFENKFAVETLICLGWW,7.6
2,EASNCFAIRHFENKFAVETLICLVNSEGSDTGSP,5.38
3,EASNCFAIRHFENKFAVETLICCCILSTYGSVSW,inactive
4,EASNCFAIRHFENKFAVETLICLVYSLRTGGRLE,inactive
5,EASNCFAIRHFENKFAVETLICVVTCFHRAMRVE,inactive
6,EASNCFAIRHFENKFAVETLICLLIREDAVGACG,inactive
7,EASNCFAIRHFENKFAVETLICIRLLQWVGSETA,inactive
8,EASNCFAIRHFENKFAVETLICCVRRMKMVICRY,inactive
9,EASNCFAIRHFENKFAVETLICCFSKYCI,5.45
10,EASNCFAIRHFENKFAVETLICGLSGAIRGVESQ,inactive
11,EASNCFAIRHFENKFAVETLICMDLSNTSSVLTV,inactive
12,EASNCFAIRHFENKFAVETLICRGWSQSRIRCRG,-0.142
13,EASNCFAIRHFENKFAVETLICTDLRSTALKLGS,inactive
14,EASNCFAIRHFENKFAVETLICVVVIGAPRFQVW,inactive
15,EASNCFAIRHFENKFAVETLICAKV,inactive
16,EASNCFAIRHFENKFAVETLICCAYSRQGPAGIA,6.98
17,EASNCFAIRHFENKFAVETLICPNPDSITCTVRT,3.39
18,EASNCFAIRHFENKFAVETLICFQSSDAKRTAGL,4.66
19,EASNCFAIRHFENKFAVETLICHGSHVLHTAMTL,2.41
20,EASNCFAIRHFENKFAVETLICLCRVENMAKLWR,inactive
21,EASNCFAIRHFENKFAVETLICLTTKYRLKHVDS,0.0748
22,EASNCFAIRHFENKFAVETLICVTQEWLCANSGA,6.54
23,EASNCFAIRHFENKFAVETLICEERFVDVARAGD,inactive
24,EASNCFAIRHFENKFAVETLICLLLQWASRWRMA,inactive
25,EASNCFAIRHFENKFAVETLICCKCCSSGMCSEG,7.57
26,EASNCFAIRHFENKFAVETLICVCYRERRSLRVG,inactive
27,EASNCFAIRHFENKFAVETLICVVFLV,inactive
28,EASNCFAIRHFENKFAVETLICDAMIPAPHCLNF,inactive
29,EASNCFAIRHFENKFAVETLICRSTI,1.34
30,EASNCFAIRHFENKFAVETLICVVYSSLLCNSTG,inactive
